The record followed here is the supplement of paper PMC12217912.

The list shows a part of the results. The full chains were built here from the parent and the listed change. Values near 0.05 are background.

B1: TEV protease; numbered along this chain (parent)
chain: MGESLFKGPRDYNPISSSICHLTNESDGHTTSLYGIGFGPFIITNKHLFRRNNGTLVVQSLHGVFKVKDTTTLQQHLVDGRDMIIIRMPKDFPPFPQKLKFREPQREERICLVTTNFQTKSMSSMVSDTSCTFPSGDGIFWKHWIQTKDGQCGSPLVSTRDGFIVGIHSASNFTNTNNYFTSVPKNFMELLTNQEAQQWVSGWRLNADSVLWGGHKVFMVKPEEPFQPVKEATQL
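Also: Bxb1 expression induced with 0.2% (w/v) L-rhamnose at OD600 near 0.5, cultures sampled hourly, flipped fraction per protease–substrate barcode pair counted by paired-end Illumina sequencing.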

This test covers variants of B1. Put plainly: raw area under fraction-flipped curve 0-4 h after induction (AUC4h, not background-subtracted), DNA-recorder readout of cleavage of the substrate (dimensionless); higher = more cleavage of the substrate by the protease variant. The settings on record: temperature: 34 °C; time window: 0-4 h after rhamnose induction.
Regarding MGESLFCGPRDYNPISSSICHLTNESDGHTTSLYGIGFGPFIITNKHLFRRNNGTLVVQSLHGVFKVKDTTTLQQHLVDGRDMIIIRMPKDFPPFPQKLKFREPQREERICLVTTNFQTKSMSSMVSDTSCTFPSGDGIFWKHWIQTKDGQCGSPLVSTRDGFIVGIHSASNFTNTNNYFTSVPKNFMELLTNQEAQQWVSGWRLNADSVLWGGHKVFMVKPEEPFQPVKEATQL [K7C], the “area with substrate HNLYFQS” value turned out to be 0.0592, the “area with substrate INLYFQS” value was 0.0577, the “area with substrate MNLYFQS” value worked out at 0.0722 and the “area with substrate PNLYFQS” value was determined as 0.0693. The “area with substrate WNLYFQS” value worked out at 0.0847.

Consider MGESLFKGPRDYNPISSSICHLTNESDGHTTSLYGIGFGPFIITNKHLFRRNNGTLVVQSLHGVFKVKDTTTLQQHLVDGRDMIIIRMPKDFPPFPQKLKFREPQREERICLVTTNFQTKSMSSMVSDTSCTFPSGDGIFWKHWIQTKDGQCGSPLVSTRDGFIVGIHSASNFTNTNNYFTSVPKNFQELLTNQEAQQWVSGWRLNADSVLWGGHKVFMVKPEEPFQPVKEATQL [M188Q], for which the “area with substrate GNLYFQS” value was determined as 0.0511, the “area with substrate HNLYFQS” value was determined as 0.0663, the “area with substrate INLYFQS” value was determined as 0.0648 and the “area with substrate LNLYFQS” value stood at 0.124. The “area with substrate PNLYFQS” value was determined as 0.0745, the “area with substrate SNLYFQS” value was determined as 0.0573 and the “area with substrate YNLYFQS” value was found to be 0.0599.

Take MGESLFKGPRDYNPISSSICHLTNESDGHTTSLYGIGFGPFIITNKHLFRRNNGTLVVQSLHGVFKVKDTTTLQQHLVDGRDMIIIRMPKDFPPFPQKLKFREPQREERICLVTTNFQTKSMSSMVSDTSCTFPSGDGIFWKHWIQTKDGQCGSPLVSTRDGFIVGIHSASNFTNTNNYFTSVPKNFMELHTNQEAQQWVSGWRLNADSVLWGGHKVFMVKPEEPFQPVKEATQL [L191H]: the “area with substrate GNLYFQS” value worked out at 0.0713, the “area with substrate HNLYFQS” value came to 0.052, the “area with substrate INLYFQS” value turned out to be 0.0628 and the “area with substrate LNLYFQS” value is 0.0679. For the same variant, the “area with substrate SNLYFQS” value came out at 0.0359, the “area with substrate TNLYFQS” value was determined as 0.0751, the “area with substrate WNLYFQS” value was determined as 0.0389 and the “area with substrate YNLYFQS” value stood at 0.0413.

For the variant MGESLFKGPRDYNPISSSICHLTNESDGHTTSLYGIGFGPFIITNKHLFRRNNGTLVVQSLHGVFKVKDTTTLQQHLVDGRDMIIIRMPKDFPPFPQKLKFREPQREERICLVTTNFQTKSMSSMVSDTSCTFPSGDGIFWKHWIQTKDGQCGSPLVSTRDGFIVGIHSASNFTNTNNYFTSVPKNFMELLTNQEAQQWVSGWRLNADSVLWGGHKVFMVKPEEPFQPVKEAFQL [T233F], the “area with substrate GNLYFQS” value was determined as 0.0593, the “area with substrate HNLYFQS” value is 0.0577, the “area with substrate KNLYFQS” value worked out at 0.0655 and the “area with substrate LNLYFQS” value turned out to be 0.058. Further, the “area with substrate MNLYFQS” value is 0.0629, the “area with substrate NNLYFQS” value was 0.0658, the “area with substrate PNLYFQS” value was 0.0677 and the “area with substrate SNLYFQS” value is 0.069. The “area with substrate TNLYFQS” value was 0.0634 and the “area with substrate WNLYFQS” value came to 0.0536.

Turning to MGESLFKGPRDYNPISSSICHLTNESDGHTTSLYGIGFGPFIITNKHLFRRNNGTLVVQSLHGVFKVKDTTTLQQHLVDGRDMIIIRMPKDFPPFPQKLKFREPQREERICLVTTNFQTKSMSSMVSDTSCTFPSGDGIFWKHWIQTKDGQCGSPLVSTRDGFIVGIHSASNFTNTNNYFTSVPYNFMELLTNQEAQQWVSGWRLNADSVLWGGHKVFMVKPEEPFQPVKEATQL [K185Y], the “area with substrate GNLYFQS” value worked out at 0.0723, the “area with substrate HNLYFQS” value turned out to be 0.0673, the “area with substrate LNLYFQS” value worked out at 0.0573 and the “area with substrate TNLYFQS” value turned out to be 0.087. For the same variant, the “area with substrate WNLYFQS” value came out at 0.069 and the “area with substrate YNLYFQS” value came to 0.048.

Turning to MGESLFKGPRDYNPISSSICHLTNESDGHTTSLYGIGFGPFIITNKHLFRRNNGTLVVQSLHGVFKVKDTTTLQQHLVDGRDMIIIRMPKDFPPFPQKLKFREPQREERICLVTTNFQTKSMSSMVSDTSCTFPSGDGIFWKHWIQTKDGQCGSPLVSTRDGFIVGIHSASNFTNTNNYFTSVPKNFMELLTNQEAQQWVSGWRLNADSVLWGGHYVFMVKPEEPFQPVKEATQL [K216Y], the “area with substrate GNLYFQS” value was found to be 0.0695, the “area with substrate HNLYFQS” value is 0.0551, the “area with substrate INLYFQS” value came to 0.0563 and the “area with substrate LNLYFQS” value came out at 0.0698. The “area with substrate MNLYFQS” value is 0.0654, the “area with substrate NNLYFQS” value worked out at 0.0402, the “area with substrate RNLYFQS” value turned out to be 0.062 and the “area with substrate SNLYFQS” value was 0.0627. Further, the “area with substrate TNLYFQS” value came to 0.0662, the “area with substrate WNLYFQS” value stood at 0.0674 and the “area with substrate YNLYFQS” value stood at 0.0429.

MGESLFKGPRDYNPISSSICHLTNESDGHTTSLYGIGFGPFIITNKHLFRRNNGTLVVQSLHGVFKVKDTTTLQQHLVDGRDMIIIRMPKDFPPFPQKLKFREPQREERICLVTTNFQTKSMSSMVSDTSCTFPSGDGIFWKHWIQTKDGQCGSPLVSTRDGFIVGIHSASNFTNTNNYFTSVPKNFMELLTNQEAQQWVSGWRLNADSVLWGGHEVFMVKPEEPFQPVKEATQL [K216E]: the “area with substrate GNLYFQS” value stood at 0.0355, the “area with substrate HNLYFQS” value turned out to be 0.0605, the “area with substrate MNLYFQS” value was found to be 0.0328 and the “area with substrate PNLYFQS” value was determined as 0.0685. Moreover, the “area with substrate TNLYFQS” value was 0.0688.

On to MGESLFKGPRDYNPISSSICHLTNESDGHTTSLYGIGFGPFIITNKHLFRRNNGTLVVQSLHGVFKVKDTTTLQQHLVDGRDMIIIRMPKDFPPFPQKLKFREPQREERICLVTTNFQTKSMSSMVSDTSCTFPSGDGIFWKHWIQTKDGQCGSPLVSTRDGFIVGIHSASNFTNTNNYFTSVPKNFMELLTNQEAQQWVSGWRLNADSVLIGGHKVFMVKPEEPFQPVKEATQL [W212I], for which the “area with substrate GNLYFQS” value was 0.0649, the “area with substrate INLYFQS” value stood at 0.0821, the “area with substrate KNLYFQS” value was determined as 0.0776 and the “area with substrate MNLYFQS” value came to 0.0644. In addition, the “area with substrate PNLYFQS” value was determined as 0.0799, the “area with substrate VNLYFQS” value was 0.0824, the “area with substrate WNLYFQS” value worked out at 0.06 and the “area with substrate YNLYFQS” value came out at 0.0809.

With MGESLFKGPRDYNPISSSICHLTNESDGHTTSLYGIGFGPFIITNKHLFRRNNGTLVVQSLHGVFKVKDTTTLQQHLVDGRDMIIIRMPKDFPPFPQKLKFREPQREERICLVTTNFQTKSMSSMVSDTSCTFPSGDGIFWKHWIQTKDGQCGSPLVSTRDGFIVGIHSASNFTNTNNYFTSVPKNFMELLTNQEAQQWVSGWRLNAASVLWGGHKVFMVKPEEPFQPVKEATQL [D208A], the “area with substrate GNLYFQS” value was found to be 0.0572, the “area with substrate MNLYFQS” value was determined as 0.0617, the “area with substrate PNLYFQS” value came to 0.0351 and the “area with substrate RNLYFQS” value stood at 0.089.

As to MGESLFKGPRDYNPISSSICHLTNESDGHTTSLYGIGFGPFIITNKHLFRRNNGTLVVQSLHGVFKVKDTTTLQQHLVDGRDMIIIRMPKDFPPFPQKLKFREPQREERICLVTTNFQTKSMSSMVSDTSCTFPSGDGIFWKHWIQTKDGQCGSPLVSTRDGFIVGIHSASNFTNTNNYFTSVPKNFMELLTNQEAQQWVSGTRLNADSVLWGGHKVFMVKPEEPFQPVKEATQL [W203T], the “area with substrate GNLYFQS” value was 0.0575, the “area with substrate HNLYFQS” value was 0.0601, the “area with substrate MNLYFQS” value was 0.0677 and the “area with substrate NNLYFQS” value was 0.066. For the same variant, the “area with substrate PNLYFQS” value is 0.0522, the “area with substrate QNLYFQS” value worked out at 0.066, the “area with substrate RNLYFQS” value was 0.0291 and the “area with substrate SNLYFQS” value was determined as 0.0627. Moreover, the “area with substrate TNLYFQS” value was determined as 0.0543 and the “area with substrate WNLYFQS” value is 0.0587.

Consider MGESLFKGPRDYNPISSSICHLTNESDGHTTSLYGIGFGPFIITNKHLFRRNNGTLVVQSLHGVFKVKDTTTLQQHLVDGRDMIIIRMPKDFPPFPQKLKFREPQREERICLVTTNFQTKSMSSMVSDTSCTFPSGDGIFWKHWIQTKDGQCGSPLVSTRDGFIVGIHSASNFTNTNNYFTSVPKNFMELLTNQEAQQWVSGWRLNFDSVLWGGHKVFMVKPEEPFQPVKEATQL [A207F], for which the “area with substrate GNLYFQS” value was determined as 0.0411, the “area with substrate HNLYFQS” value amounted to 0.0491, the “area with substrate LNLYFQS” value came to 0.0943 and the “area with substrate NNLYFQS” value worked out at 0.0645. In addition, the “area with substrate SNLYFQS” value is 0.0519, the “area with substrate TNLYFQS” value is 0.0483 and the “area with substrate YNLYFQS” value amounted to 0.0737.
